PubChem BioAssay AID2101 (National Center for Advancing Translational Sciences (NCATS), 2009)
Among all 330,000 compounds or so, about 300 (0.091%) were called active. This list was built around the results that the source calls inconclusive (neither active nor inactive); the mix of calls is not that of the screen. Calls follow the shape of the dose curve; as a rule, active = well fitted inhibition curve with a large enough effect; inconclusive = small, poorly fitted or top-dose-only effect, or effect the other way, or another doubt; inactive = no such curve, though single readings can be large or run the other way. Potencies of inconclusive entries are left out as doubtful fits.
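For activity change, negative = inhibition in this document: 0% = full enzyme activity and -100% = no enzyme basal.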
Potency is read from the fitted curve at half-maximal effect.

What follows are molecules tested against Lysosomal acid glucosylceramidase (Homo sapiens) (UniProt P04062) (assay: qHTS Assay for Inhibitors and Activators of N370S glucocerebrosidase as a Potential Chaperone Treatment of Gaucher Disease). Conditions: N370S GC spleen homogenate, 4MU-glucoside fluorescence; activity change, negative = inhibition: at 59.4 µM (top of the series) unless noted.
With `CCOC(=O)C1=C(N)Oc2c(oc(CO)cc2=O)C1c1ccc(F)c(F)c1` (stereo not drawn) the Potency was inconclusive [inhibitor, single point]. `COC(=O)CSc1nc(N2CCOCC2)c2c(c1C#N)CC(C)(C)OC2` was tested, and the Potency was inconclusive [inhibitor, single point]. In the case of `O=S(=O)(NCc1ccc2c(c1)OCO2)c1ccc(Cl)s1`, the Potency is reported as inconclusive [inhibitor, full curve, poor fit]. `Cn1c(CSc2nc3ccccc3s2)nc2ccccc21` was tested, and the Potency was inconclusive [activator, partial curve, poor fit]. For `COC(=O)c1ccc(CSc2ccc3nnc(-c4ccc(OC)cc4)n3n2)o1`, the Potency was inconclusive [activator, partial curve]. For `O=C(NCCCN1CCOCC1)c1cc2c(s1)-c1ccccc1OC2`, the Potency was inconclusive [activator, partial curve]. For `COc1ccccc1N(C(=O)c1snc(C(N)=O)c1N)C(C(=O)NC1CCCCC1)c1cccc(OC)c1OC` (stereo not drawn), the Potency was inconclusive [activator, partial curve]. `COc1ccc(CNCCC(c2ccc(F)cc2)c2ccc(OC(C)C)cc2)cc1OC` (stereo not drawn) was tested, and the Potency was inconclusive [inhibitor, partial curve]. For `Cc1ccc(CCNC(=O)c2cc(-c3ccncc3)nc3ccccc23)cc1`, the Potency was inconclusive [inhibitor, single point]. In the case of `O=c1c(-c2ccc(F)c(F)c2)nc2cncnc2n1C1CC1`, the Potency is reported as inconclusive [inhibitor, single point]. With `O=S1(=O)[C@H]2C[C@@H]3C=C[C@@]2(CN1Cc1ccc(Cl)cc1)O3` the Potency was inconclusive [inhibitor, full curve, poor fit]. `CCCCCn1c(SCc2ccncc2)nc2cc(C(=O)NCc3ccco3)ccc2c1=O` was tested, and the Potency was inconclusive [activator, partial curve]. For `C#CCOc1ccc(C2C3=C(CCCC3=O)N(CC(=O)O)C3=C2C(=O)CCC3)cc1Br`, the Potency was inconclusive [activator, partial curve]. For `Cc1ccc2nc(N(CCCN(C)C)C(=O)c3sc4ccccc4c3Cl)sc2c1`, the “activity change, negative = inhibition” value was inactive: -22.9%. In the case of `C#CCOCCOCCOCCNc1nc(N2CCN(C(=O)CCCCCCCCCCNC(=O)[C@@H](CCC(=O)O)n3cc(CCCCCN)nn3)CC2)nc(N2CCN(C(=O)CCCCCCCCCCNC(=O)[C@H]([C@@H](C)CC)n3cc(CCCCCN)nn3)CC2)n1`, the Potency is reported as inconclusive [inhibitor, partial curve]. `COCCn1c(NC(=S)NC(=O)C23CC4CC(CC(C4)C2)C3)cc(=O)[nH]c1=O` was tested, and the “activity change, negative = inhibition” value was inactive: -0.0126%. `COC(=O)C1(C)Nc2ccccc2C(=O)N1c1ccccc1OC` (stereo not drawn) was tested, and the Potency was inconclusive [activator, single point]. For `O=S1(=O)C=C(SCc2cccc(Cl)c2)Nc2ccccc21`, the “activity change, negative = inhibition” value was inactive: -22.1%. For `C=CCN1CCN(c2nc3ccccc3nc2C#N)CC1`, the Potency was inconclusive [inhibitor, partial curve]. For `O=C(OCc1ccccc1C(F)(F)F)c1cc([N+](=O)[O-])ccc1N1CCOCC1`, the Potency was inconclusive [activator, single point]. For `N=c1c(C(=O)NC2CCCC2)cc2c(=O)n3ccccc3nc2n1CC1CCCO1` (stereo not drawn), the Potency was inconclusive [activator, partial curve]. In the case of `O=C(CCCN1C(=O)/C(=C\c2ccccc2)SC1=S)Nc1cccc(C(=O)O)c1`, the Potency is reported as inconclusive [inhibitor, partial curve]. For `O=C(Nc1ccc(F)cc1)c1cc2c(s1)CCCC2`, the Potency was inconclusive [activator, single point]. With `Cc1ccc(NC(=O)Nc2ccc(C(=O)N3CCOCC3)cc2)cc1` the activity change, negative = inhibition was inconclusive: 31.5% [activator]. In the case of `CCOc1ccccc1-c1nnc2n1N=C(c1c(OC)cccc1OC)CS2`, the “activity change, negative = inhibition” value is reported as inactive: -10.5%. With `Oc1ccc(/C=N/Nc2nccnc2Cl)cc1` the “activity change, negative = inhibition” value was inactive: -17.6%. With `CCCN(Cc1cc2ccc(C)cc2[nH]c1=O)S(=O)(=O)c1ccccc1` the Potency was inconclusive [activator, partial curve]. In the case of `COC(=O)C(C)Oc1ccc2cc(-c3ccccc3)c(=O)oc2c1` (stereo not drawn), the Potency is reported as inconclusive [activator, partial curve]. With `CCOC(=O)c1c(C)[nH]c(C(=O)OCC(=O)Nc2sccc2C(N)=O)c1C` the “activity change, negative = inhibition” value was inactive: -10.7%. For `CSc1ccccc1OCc1cc(C(=O)NC2CCOC2)no1` (stereo not drawn), the “activity change, negative = inhibition” value was inactive: -7.29%. `COc1ccc(Nc2nnc(SCC(=O)/C=C3/N(C)c4ccccc4C3(C)C)s2)cc1` was tested, and the Potency was inconclusive [inhibitor, partial curve]. For `O=C(NCc1ccco1)c1cnn2c(C(F)F)cc(-c3ccccc3)nc12`, the Potency was inconclusive [activator, full curve, poor fit]. `CC(C)N(C(=O)/C=C/c1cccc([N+](=O)[O-])c1)C(C)C` was tested, and the “activity change, negative = inhibition” value was inactive: 13.6%. In the case of `COc1ccc(-c2cc(C(=O)Nc3ccc(C(N)=O)cc3)c3ccccc3n2)cc1`, the Potency is reported as inconclusive [activator, single point]. `O=C(c1cc2ccccc2o1)N1CCN(C/C=C/c2ccccc2)CC1` was tested, and the Potency was inconclusive [inhibitor, single point]. With `CCN(CC)Cc1c(O)ccc2c(=O)c(Oc3ccccc3OC)c(C)oc12` the Potency was inconclusive [activator, partial curve]. `COCCNC(=O)/C(C#N)=C/c1ccc(C)o1` was tested, and the Potency was inconclusive [inhibitor, full curve, poor fit]. `O=c1ccc2ccc(OCCOc3cccc(Cl)c3)cc2o1` was tested, and the Potency was inconclusive [activator, single point]. For `CCOc1ccccc1OCC(=O)Nc1ccc(N2CCCCC2)cc1`, the Potency was inconclusive [activator, partial curve]. In the case of `COc1cc(S(=O)(=O)N2CCN(C)CC2)ccc1Cl`, the Potency is reported as inconclusive [activator, partial curve, poor fit]. For `CN1CCSc2ccc(C(=O)NCc3ccccc3F)cc21`, the Potency was inconclusive [activator, partial curve]. For `CCn1c(Cn2nnc(-c3ccccc3)n2)nnc1SCc1ccc(Cl)c(Cl)c1`, the Potency was inconclusive [activator, partial curve]. For `COc1cc(/C=C2\CC/C(=C\c3ccc(OCCO)c(OC)c3)C2=O)ccc1OCCO`, the Potency was inconclusive [inhibitor, partial curve]. `CCCc1cc(=O)oc2cc(C)cc(OC(C)C(=O)NCCN3CCOCC3)c12` (stereo not drawn) was tested, and the Potency was inconclusive [inhibitor, single point]. For `Cc1ccc(S(=O)(=O)CNC(=S)c2ccc3ccccc3c2)cc1`, the “activity change, negative = inhibition” value was inactive: 27.3%. `CC1=CC(C)[C@H](/C=N/n2c(=O)[nH]c3c([nH]c4ccc(C)cc43)c2=O)C(C)C1` (stereo partly drawn) was tested, and the Potency was inconclusive [activator, single point]. `COc1ccc(/C=C(\C#N)c2c[nH]c3ccccc23)cc1` was tested, and the Potency was inconclusive [activator, single point]. With `C=CCn1c(=NC(=O)c2ccc(S(=O)(=O)N3CCCc4ccccc43)cc2)sc2cc(S(N)(=O)=O)ccc21` the Potency was inconclusive [inhibitor, full curve, poor fit]. For `CCOC(=O)c1sc(C)c2c1NC(c1ccc(N(C)C)cc1)NC2=O` (stereo not drawn), the Potency was inconclusive [activator, partial curve]. `O=C(NNc1cccc(Cl)c1)c1cccnc1Cl` was tested, and the “activity change, negative = inhibition” value was inactive: -6.27%. With `COc1ccccc1CNc1nc(-c2cccnc2)nc2ccccc12` the Potency was inconclusive [inhibitor, partial curve]. With `Cc1cc(N2CCN(C)CC2)nc2ccc(NC(=O)c3ccc4c(c3)OCO4)cc12` the Potency was inconclusive [inhibitor, partial curve]. `Cc1ccc(-c2nnc(CSc3nnc(COc4ccccc4)n3-c3ccccc3)o2)cc1` was tested, and the Potency was inconclusive [activator, single point]. For `COc1ccc(CCNC(=O)CN2C(=O)NC(Cc3c[nH]c4ccccc34)C2=O)cc1` (stereo not drawn), the Potency was inconclusive [inhibitor, single point]. For `Nc1c(S(=O)(=O)c2ccccc2)c2nc3ccccc3nc2n1C1CC1`, the Potency was inconclusive [activator, partial curve]. With `CCCC(=O)Nc1sc(C(=O)OC)c(C)c1C(N)=O` the Potency was inconclusive [activator, single point]. For `O=C(CC1C(=O)NCCN1Cc1cccc(F)c1F)NCCCC1CCCC1` (stereo not drawn), the “activity change, negative = inhibition” value was inactive: -18.6%. In the case of `O=C(NCc1ccc2c(c1)OCO2)Nc1ccc2ccccc2c1`, the Potency is reported as inconclusive [activator, single point]. In the case of `N#Cc1nc(-c2cccc3ccccc23)oc1NCC1CCCO1` (stereo not drawn), the Potency is reported as inconclusive [activator, full curve]. For `CC(C)(C)c1ccc(C(=O)O/N=C(\N)c2ccccc2)cc1`, the Potency was inconclusive [activator, single point]. In the case of `COc1ccc(/C=C2\SC(=S)N(CCC(=O)NCCCN3CCOCC3)C2=O)cc1`, the Potency is reported as inconclusive [inhibitor, partial curve, poor fit]. With `COc1ccccc1C(=O)COC(=O)c1ccc(N(C)C)cc1` the Potency was inconclusive [activator, single point]. In the case of `COc1ccccc1N(CN1CCCC1=O)C(=O)COc1ccccc1`, the Potency is reported as inconclusive [inhibitor, full curve, poor fit].
